# Measured values published in the BET-seq Pho4 binding data (Le et al. 2018).
# Some of the results follow. Values were computed here from the reads of four pooled replicates and scatter widely.
# Target: T1, Pho4 (S. cerevisiae) (UniProt P07270)
# T1 sequence: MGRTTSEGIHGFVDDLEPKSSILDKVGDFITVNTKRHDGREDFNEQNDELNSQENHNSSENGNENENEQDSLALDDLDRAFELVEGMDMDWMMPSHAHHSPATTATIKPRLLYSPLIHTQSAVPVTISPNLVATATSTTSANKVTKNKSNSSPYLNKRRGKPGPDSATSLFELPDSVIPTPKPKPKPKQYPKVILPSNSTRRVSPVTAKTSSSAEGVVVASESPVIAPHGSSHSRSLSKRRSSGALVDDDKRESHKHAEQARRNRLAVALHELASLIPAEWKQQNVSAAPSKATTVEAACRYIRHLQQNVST
# Experiment: relative binding free energy (BET-seq); higher = weaker binding
# Details: reference: library average
row,Sequence,relative binding free energy [kcal/mol]
1,AGTTGCACGTGAATTA,0.21
2,CGTAGCACGTGGAGAG,-0.07
3,AGTTACACGTGAGTTG,0.28
4,GAGTGCACGTGTCAGG,0.08
5,GTGGTCACGTGGGGGA,0.09
6,ATCGGCACGTGTTATT,0.1
7,AGATTCACGTGGAGGT,0.3
8,TGAGGCACGTGATGGG,-0.04
9,CGGGGCACGTGAGTGT,0.15
10,TTGTGCACGTGGAGTC,0.01
11,ATTTACACGTGATTGA,0.1
12,GAAGTCACGTGGTAAT,0.19
13,GGGGACACGTGGTGAT,0.09
14,GTTTACACGTGTAGCA,0.28
15,AGTAGCACGTGTAGGG,0.02
16,GTGTGCACGTGTCAGT,0.08
17,TGTCTCACGTGTCAGT,0.31
18,AATGTCACGTGGTATA,-0.04
19,ATCGTCACGTGTAAAG,0.31
20,TAAGTCACGTGGTATG,0.07
21,AAGTCCACGTGGGGAG,-0.12
22,TCGATCACGTGGGGGT,-0.01
23,CGACTCACGTGGGTTG,0.07
24,CGGGTCACGTGGTTCG,0.18
25,GCCGGCACGTGCGGGG,-0.18

row,Sequence,relative binding free energy [kcal/mol]
1,GTCTTCACGTGCGGTG,0.2
2,CGATTCACGTGGTAGG,0.14
3,AGATGCACGTGGGGCA,-0.21
4,TCGGGCACGTGAGTTG,0
5,TTCGACACGTGTTTAT,0.2
6,CGGGTCACGTGAGGGA,0.27
7,GTGTACACGTGTTTGG,0.13
8,TAAATCACGTGAATTT,0.41
9,CCTGGCACGTGGGGGC,-0.17
10,GGGGTCACGTGGTGTT,0.12
11,GTTGGCACGTGTCCGT,-0.02
12,TACGTCACGTGGTCTT,0.09
13,GTGATCACGTGAGGTT,0.37
14,TCCTACACGTGTGGGT,0.15
15,AGAGTCACGTGCGTGG,0.05
16,TCAGGCACGTGTGAAT,0.02
17,GAAGGCACGTGGAGCG,-0.01
18,GTTTGCACGTGTAAGC,0.34
19,TCTTGCACGTGTAGTT,0.13
20,CTGGGCACGTGAGAGT,0.07
21,TGTCACACGTGTCGTT,0.01
22,AAGGGCACGTGCGGGC,-0.22
23,GTTCTCACGTGGCGTT,0.17
24,AGATGCACGTGATGGA,0.17
25,TGTGTCACGTGTTGAA,0.16

row,Sequence,relative binding free energy [kcal/mol]
1,TTATGCACGTGGGTTT,-0.07
2,GATGACACGTGGGGGA,0.09
3,AAGGACACGTGATGGT,0.26
4,TGCGGCACGTGTGAAG,-0.02
5,TCGTTCACGTGAGTGG,0.39
6,CGTAACACGTGTTATG,-0.06
7,TTGGTCACGTGTTAGA,0.12
8,ATGTCCACGTGTCGGT,0.04
9,GAGATCACGTGATGGT,0.4
10,GTAAGCACGTGGATTA,-0.05
11,AGCGTCACGTGCAGGG,-0.01
12,GGGGGCACGTGTATAG,-0.13
13,TATCTCACGTGTTAGA,0.29
14,TCTGTCACGTGTAAGT,0.22
15,AGGGGCACGTGAGGCT,0.02
16,TTCACCACGTGGTGGT,-0.08
17,TCAGTCACGTGTGGTT,0.02
18,TATTGCACGTGGGAAG,-0.09
19,GTGTCCACGTGTGAGA,0.16
20,ACGATCACGTGTTTGG,0.08
21,GTTATCACGTGGGGCG,0.03
22,TTACACACGTGGTTGG,-0.06
23,GGGGACACGTGGGGGG,0
24,GCGTTCACGTGGTCGT,0.24
25,GGCATCACGTGGTGCT,0.13

row,Sequence,relative binding free energy [kcal/mol]
1,TTGCGCACGTGGGGAC,-0.14
2,GTGGGCACGTGTGCAT,-0.15
3,GTCTCCACGTGGTAGT,0.06
4,TTCTTCACGTGTGGCT,0.3
5,GTGTCCACGTGATTTT,0.14
6,AGAAGCACGTGGTTTG,-0.06
7,GAGCTCACGTGGGTGG,0.18
8,GAGTTCACGTGGGTCG,0.4
9,TTATACACGTGTATAG,-0.19
10,TAGGGCACGTGATGCA,-0.18
11,GTTTGCACGTGGATTT,0.12
12,TTATTCACGTGTTCCG,0.33
13,GCATGCACGTGGGTGT,-0.08
14,TTTAACACGTGTACTT,-0.02
15,TGAGTCACGTGGAAGT,0.04
16,CTGTTCACGTGGGTTA,0.16
17,TATGGCACGTGAAGTC,0.24
18,ATATTCACGTGCGTTT,0.24
19,AGACACACGTGGGGGG,-0.12
20,GGGGACACGTGACGGA,0.41
21,ATAGACACGTGTCAGT,0.09
22,CAGGACACGTGGTTAG,0.11
23,TGTACCACGTGGGGAA,-0.17
24,TAGTACACGTGAGTCT,0.26
25,GAGTTCACGTGTGAGG,0.29

row,Sequence,relative binding free energy [kcal/mol]
1,TCTTGCACGTGTGGGT,0.08
2,GTGGCCACGTGGGTAT,-0.24
3,TAATGCACGTGTAGGT,-0.03
4,AAGTGCACGTGAGTGA,0.22
5,TGGAACACGTGTTTTA,-0.06
6,TGATTCACGTGGACTT,0.24
7,AAACTCACGTGTGTGT,0.15
8,GAGTCCACGTGAGGGG,0.23
9,GTTGGCACGTGTGGAT,-0.03
10,GTTAGCACGTGTTATG,-0.07
11,TGGGACACGTGACGTG,0.11
12,TGTCGCACGTGTCATG,-0.09
13,TTTAACACGTGTCGAG,0.07
14,GAGGGCACGTGTGTCT,-0.07
15,TTGTTCACGTGCGTTG,0.18
16,AGGGGCACGTGATGCG,-0.1
17,TAGGACACGTGAGTCG,0.21
18,ATTTTCACGTGTGCTT,0.27
19,TTTAACACGTGGTATG,-0.11
20,ATTTTCACGTGGAACG,0.26
21,GGATTCACGTGAGAGG,0.54
22,TGTCTCACGTGGGATG,-0.08
23,TATGGCACGTGTAAAG,0.07
24,AGACTCACGTGATGTG,0.3
25,GTGTTCACGTGCTCTG,0.17

row,Sequence,relative binding free energy [kcal/mol]
1,CTAATCACGTGGTTAG,0.02
2,GTCTTCACGTGTTTCG,0.42
3,TGTATCACGTGGTGGT,0.08
4,AGGGACACGTGTGTGA,0.04
5,TTAATCACGTGAAGCT,0.46
6,CCGGTCACGTGGTGTA,-0.02
7,CTTATCACGTGGCGGT,0.15
8,TACGTCACGTGGGGGC,0.07
9,GGAAACACGTGGGGGT,-0.19
10,AATTGCACGTGTCTTT,-0.04
11,GTGAACACGTGAGGTT,0.28
12,TGTTACACGTGTTATT,0.1
13,TTAGTCACGTGTTTAA,0.13
14,ACGGTCACGTGCGTGT,-0.09
15,GCTATCACGTGTGCGG,0.17
16,GTCCCCACGTGGGGGG,-0.27
17,CTAGGCACGTGAGTGG,0.11
18,GGGCCCACGTGTTTGG,0
19,CGCGGCACGTGAGGGA,0.27
20,TTAGTCACGTGGAAAC,0.34
21,CGTGCCACGTGGGGAT,-0.3
